# The other results are listed elsewhere or left out.
# Test system: PF3D7_0420300 AP2 domain 1 (GST-tagged)
# Experiment: gcPBM binding intensity (ln(normalized median fluorescence intensity)); higher = stronger DNA binding
# Outline: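 Binding intensity values are the highest Masliner-normalised natural-log median intensity among replicate spots of either probe orientation. The binding step lasted 1 h in 1× PBS with 1% milk, 0.2 mg/ml BSA, 0.5% salmon testes DNA and 0.03% Triton X-100, using GST-tagged P. falciparum DNA-binding domains expressed in E. coli on an Agilent 4 × 180k array of primer-extended double-stranded 36-bp intergenic genomic probes plus negative controls. Alexa488 anti-GST antibody and a 488 nm scan detected bound protein.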
row,Sequence,gcPBM binding intensity (ln)
1,TAGAAGCATGGACACACACACATACATACCCATACA [CACACA_site4916],10
2,TTATTTTTCCGGAATAGTACATAGACGCAGATATAA [XGTACX_site6356],9.27
3,AAGAGAAAAATATATACACACACATAAATATATACA [CACACA_site8573],9.96
4,AAGGGGTAAAGAAAAACACACAAAAAATAAAAATAT [CACACA_site361],9.65
5,GATGAAAATAGAAATACACACTAAAAAATAAAATTA [CACACA_site4764],9.42
6,GAAATAATTCGATGTGCATGTAACGTTTCCCCAAAG [TGCATGCA_site122],9.32
7,TGCATACTTTTGTAAGTGCATAAAATCGTACCATGC,9.07
8,AATTAAAAAAAATACACACACACATACACATATATA [CACACA_site3298],10.2
9,CCAAAAAAAAAAAAAAGTACATAAAAACAAGAGAAT [XGTACX_site3037],9.39
10,CGTATTTATATAATTACACACCATATTATAATTATT [CACACA_site3760],9.49
11,GAAAGGATATATATATATATATATATAATACATTTC [GTGCAC_negctrl_site677],9.09
12,TATATATACATACATACACACATATATATATATATT [CACACA_site4110],9.59
13,ACATATAATATATAATGTACAAAATTGTTAACAATA [XGTACX_site3798],9.31
14,TACAGATACAGATACACACACACACCGAAATAAATA [CACACA_site4865],10.3
15,CTTTAAGTTATATGAAGTACAATTTAAAAAAATGAA [XGTACX_site358],8.91
16,AAAATAAAAAGAAAAAGAAAAAAGGGGGGGTAGGGG [CACACA_negctrl_site1048],10.2
17,TAAATTCCTACATACGCATGTACATTAAAATTTTAA [TGCATGCA_site215],9.13
18,ATACATTCAATGAAATGTACGTTTATTTACAGAAGA [XGTACX_site2999],8.9
19,AAATAAAAAACAGTGGCACACATTATGTATCCACCT [CACACA_site3756],9.32
20,AAAAAAAAAATATACACACACATATAAATATAAATA [CACACA_site7574],10
21,TTAAAGTAGAGAAAATGTACATTTTATTAACACAAT [XGTACX_site6369],9.28
22,TACTATTATAAATATGTGCACTTCAATAATATACTA,9.23
23,CTTAGGTTAAAAGTGTGTACATAAAAACATATATAA [XGTACX_site2213],9.55

row,Sequence,gcPBM binding intensity (ln)
1,ATAAGAAAAAGACACACACACAAAAAAAAAAAAAAA [CACACA_site2828],9.68
2,TAAATAAATTATTTTCGTACTTATTTATTTTAATTA [XGTACX_site283],9.03
3,AAAAAAAAAAAACACACACACAAATACAAATGGTAA [CACACA_site1720],10.1
4,AAGTTATTGATATATACACACAAATATAAATAATAT [CACACA_site6695],9.6
5,AATACATATCAAAGCTGTACAAAGTAAATTTTACTT [XGTACX_site3525],9.37
6,TTCAATAGGTATAATTGTACTTAATAATATATTGTT [XGTACX_site8363],9.27
7,TAATGGTTATCACTAACATGCAGTAATATTATATAG [TGCATGCA_site176],9.14
8,TTTTTTCTTTTTTTTTGTACATATAATATTTATGTT [XGTACX_site302],9.4
9,ATATATATATGTATATGTACATATATATGGTAACTC [XGTACX_site681],9.38
10,ATATAATATTTATATGCACACTTTTCTATATATAAG [CACACA_site6100],9.42
11,TAAAATATTATTTATTTACACACCAATCTTCTTTTC [CACACA_site9320],9.38
12,TCGTATTTAAAATGTAGTACATAATTTGAAAAATAA [XGTACX_site5832],8.88
13,AAGGATCACAGACAAACACACATATATATATATATA [CACACA_site4469],9.33
14,TTTTGACCATATCTGTTGCACTTTTGTGCTATTCGA,9.14
15,CATTATGTCGTAAATACACACATACATATACATACA [CACACA_site8383],9.57
16,AAATAATTTGTTGACACACACACACCCATACAGATA [CACACA_site5291],10.1
17,TAAATTTTTTCCTCCTGTACTTATTATATTTTTTTG [XGTACX_site1572],9.47
18,ATTAATTCGTTTTGTACACACATAATGAGTAATTTA [CACACA_site7118],9.44
19,ATAAAAATTGATTATACACACGCGCCCAGACAACAA [CACACA_site5870],9.85
20,ATATAGATGCATAATACACACATCAGATAATTAACC [CACACA_site6871],9.78
21,ACAAGGTTTACGGGTAGTACAAATTTTTGAACATCT [XGTACX_site4739],9.07
22,TTTTTTTTTTTTTTTTGTACTCATATCTACTATCAT [XGTACX_site274],8.84
23,AGCCAAACCTTAAATTTAGCAATAAGTTTACAGGTC [CACACA_negctrl_site360],9.04

row,Sequence,gcPBM binding intensity (ln)
1,ATTAAAAGTTTATACAAATAAAAAACAAAACAAAAA [CACACA_negctrl_site1030],9.41
2,AATGTTTTATTTTGAAGTACATTTAAGAATTTTTTA [XGTACX_site7814],8.99
3,TATATATGCATATACATACACACATAACACATACGT [CACACA_site3833],9.66
4,ATATAATAATAAGGCACACAAATTAAAATATAAAAA [CACACA_site3710],9.58
5,TTATGCCTTTAATATACACACTAATATTTTTTTGGC [CACACA_site5171],9.27
6,AATTTTTTTTTTAGACGTACAAGAAAAAACAAAAAA [XGTACX_site4990],9.18
7,TATATGAAGTACACAATACACACTAATTATATATAA [CACACA_site2608],9.6
8,AACTATAAAAATTTTACACACTGTTTTTAAATAATG [CACACA_site5928],9.4
9,TGTGTATTTATAAATACACACCAAATGTTAATATAT [CACACA_site6904],9.36
10,GTAAAATGATATAAATGTACATAATATATATATGTC [XGTACX_site4049],9.43
11,TGTCATATTATAAATTGTACAAATAGTATAATTATT [XGTACX_site581],9.15
12,ATTTTATCTTTAAACTGTACGTATTAATATGTAGAA [XGTACX_site3077],9.14
13,AGTATACATATATATACACACATATATATATATATA [CACACA_site300],9.42
14,ATAAAAATATTATAAGCACACATATATATATATATA [CACACA_site8781],9.16
15,TTAACATATTTGTTAGTGCATTTTGATATTACACAT [GTGCAC_site9978],9.35
16,AAAAAAATTAAATGTACACACACCTTAAACAATGTC [CACACA_site1855],9.72
17,CTAATATCTGTATGCACACACAATAAATACATATTT [CACACA_site5797],9.6
18,ATAAATAAATAAATAAATAAATAAATAAATATATAT [CACACA_negctrl_site1728],9.3
19,ATTTATTTTATATGTTGTACAAACATTTTAAAACAT [XGTACX_site6919],9.06
20,TCTTTTTCTTGACGAGTGCAAAAATTGTGTTTGAAA,8.95
21,AATGCCTTGTTGAGGTGTACTGAATGTTATTTTAAT [XGTACX_site3255],9.19
22,TTTTTTTAAAGAATTATCATAAAATGATTGCATCAT [XGTACX_negctrl_site141],8.69
23,AAGGAAATATAATATACACACATAAGTGTACTTATA [CACACA_site4030],9.52

row,Sequence,gcPBM binding intensity (ln)
1,GAAAAATTAAAAATAACACACACATATATATATTTA [CACACA_site8896],9.78
2,ATTATATATCCCTATTCACACATGTATTATATAAAT [CACACA_site5486],9.57
3,TAATAAAGTGAATAATGTACATTTTATTTATTATAT [XGTACX_site6614],9.07
4,TCAGTAATACTTGAATGTACTTATATTGTTTGTTTG [XGTACX_site6449],9.47
5,CCTATATTAAAACAAGCACACAATCGCATAATATCC [CACACA_site9052],9.72
6,TATATAATAAAAAAAAGTACTTGGACAATATTATTT [XGTACX_site2802],9.32
7,ATCAAAATATTTATATGTACATATTAAAAATATAGA [XGTACX_site725],9.06
8,TTAATTTACATGAACTGTACATAACATTTTTTTAAA [XGTACX_site4672],8.96
9,ATCAACATCTAACATTGTACATGTGATGTGTAAAAG [XGTACX_site547],9.14
10,ATATTTGCCCAAGATAGTACATATATATATATATAT [XGTACX_site7756],9.44
11,ATATTGGAGCACAACACACACAAGTATATATATGGA [CACACA_site1546],9.79
12,TATATATATATATATTGTACATATATTATTATATAT [XGTACX_site7447],9.16
13,AAATAGCCAAAAATCATGCACACCTAAAAAAAAAAA [CACACA_site2572],9.42
14,AATTCTCTTAATAAATAAACACAAATAAATAATAAA [GTGCAC_negctrl_site499],9.16
15,CATACATACAAACACACACACACACCGATATATATA [CACACA_site8952],10.3
16,CACATACAGACATACACACACATATATATTAATATA [CACACA_site546],9.95
17,TTATTTATAATGTTGTGTACATATATGAATATACCA [XGTACX_site3111],9.07
18,AAGAAAAAATAAAGCACACAAATATTTTAAAAACAC [CACACA_site3325],9.94
19,GATATATATACATGTGTGCACCATGCAACTTGTTTT,9.59
20,TTTTTTCAATTGGAAATTATTTTACAATGAAGGGTA [XGTACX_negctrl_site469],8.84
21,TATTTTACGTATTGTTGTACTTGAAACAAATATACA [XGTACX_site8778],8.99

# Reference: the supplement of paper PMC11417369
